Assay results: article PMC6919601, “Identification of Plasmodium dipeptidyl aminopeptidase allosteric inhibitors by high throughput screening” (PLoS ONE, 2019)
The whole screen tested about 110,000 compounds, of which about 230 (0.21%) showed an effect of 50% or more. Some of the results follow.

Molecular target: DPAP1 (Plasmodium falciparum, UniProt Q8IIJ9)
Assay: primary screen, percent inhibition; read by cleavage of a fluorogenic dipeptide substrate; higher = more effect of the substance
Design: species or system P. falciparum D10 trophozoite lysates; single well
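Further: 30 min substrate incubation versus DMSO and 10 µM JCP410 controls.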

DPAP1, sequence (Q8IIJ9 whole entry, looked up): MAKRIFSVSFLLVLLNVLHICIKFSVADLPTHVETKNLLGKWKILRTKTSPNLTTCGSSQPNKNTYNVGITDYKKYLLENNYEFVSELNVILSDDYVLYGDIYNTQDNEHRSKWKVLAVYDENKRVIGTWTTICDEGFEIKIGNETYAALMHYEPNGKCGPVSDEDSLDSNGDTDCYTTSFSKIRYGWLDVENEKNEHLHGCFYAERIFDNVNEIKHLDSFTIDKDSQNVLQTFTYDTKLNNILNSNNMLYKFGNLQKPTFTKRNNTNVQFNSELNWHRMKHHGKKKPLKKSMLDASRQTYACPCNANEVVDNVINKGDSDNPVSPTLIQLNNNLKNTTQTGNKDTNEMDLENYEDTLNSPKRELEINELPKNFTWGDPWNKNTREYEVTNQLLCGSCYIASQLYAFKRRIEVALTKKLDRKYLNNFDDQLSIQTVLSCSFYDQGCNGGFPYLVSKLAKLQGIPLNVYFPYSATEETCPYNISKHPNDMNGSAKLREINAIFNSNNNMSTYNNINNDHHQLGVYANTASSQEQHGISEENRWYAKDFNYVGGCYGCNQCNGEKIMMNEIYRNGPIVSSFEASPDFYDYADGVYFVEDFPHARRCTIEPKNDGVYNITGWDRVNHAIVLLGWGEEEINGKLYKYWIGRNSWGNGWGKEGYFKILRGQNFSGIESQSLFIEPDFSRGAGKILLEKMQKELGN

In order of falling “% Inhibition @ 10 uM” value:
1. O=C1C2CC=C(Cl)CC2C(=O)N1CCO (centres unmarked)  29.2%
2. O=C(C1=C(O)C(=O)N(CCCn2ccnc2)C1c1ccccc1)c1ccc2c(c1)OCCO2 (centres unmarked)  15.7%
3. Cc1cc(C)n2nc(NC(=O)C3CCCO3)nc2n1 (centres unmarked)  14.8%
4. CCCOc1ccc2oc(=O)c3c(c2c1)CCCN3C(=O)CN1CC(C)CC(C)C1 (centres unmarked)  10.9%
5. COc1cc(-c2cc(-c3ccc(F)cc3)nc(N)c2C#N)ccc1O  8.44%
6. O=C1NC(c2c[nH]c3ccccc23)Nc2sc3c(c21)CCCC3 (centres unmarked)  7.92%
7. CCc1nc(C(C)(C)C)cc(C(=O)O)c1C(=O)O  6.69%
8. O=C(NC(Cc1c[nH]c2ccccc12)C(=O)O)c1ccc(C#CC2(O)CCCCC2)cc1 (centres unmarked)  6.38%
9. CCOc1ccc2c(=O)c(-c3ccccc3)coc2c1  5.37%
10. CCOc1ccc(NS(=O)(=O)c2ccc(OC)cc2)cc1  5.12%
11. Cc1ccc2c(CNC3CCCCCC3)c(C(=O)O)n(Cc3ccc(F)cc3)c2c1  4.67%
12. O=C1OC(c2ccc3c(c2)OCO3)=N/C1=C\c1ccc(Cl)cc1Cl  4.54%
13. CCCOc1ccc(Cc2nn3c(=O)/c(=C\c4ccc(C)o4)sc3nc2=O)cc1  4.51%
14. COc1ccc(Br)cc1/C=C1\N=C(c2cccc(C)c2)OC1=O  4.35%
15. CCOC(=O)N1CCC(Nc2nc3ccccc3n3nnnc23)CC1  4.33%
16. CC1(C)Cc2ccccc2C(NCC(=O)O)=N1  4.3%
17. Nc1nc(-c2ccc(Cl)cc2)nn1S(=O)(=O)c1ccccc1  4.22%
18. O=C(NCCc1cccc(Cl)c1)c1cccnc1  3.95%
19. COc1cccc2c3c(c(O)nc12)CC(C)(C)O3  3.72%
20. Oc1nc(COc2nsnc2N2CCOCC2)nc2ccccc12  3.68%
21. COc1ccccc1C1CC(=O)CC(c2ccccc2OC)S1 (centres unmarked)  3.66%
22. Cc1nnc(SCc2ccc(F)cc2)nc1O  3.62%
23. COc1ccccc1-c1cc(=O)n(CC(=O)N2CCC(C(N)=O)CC2)c2c1CCCC2  3.59%
24. Cc1cc(NCc2ccccc2Cl)n2nc(C)nc2n1  3.51%
25. Cc1cc2c(cc1C)NC(c1coc3ccccc3c1=O)C1=C(O)CC(C)(C)CC1=N2 (centres unmarked)  3.05%
26. OCCn1c(-c2ccc(F)cc2)cs/c1=N\c1ccc(F)cc1  2.73%
27. OC(c1ccccc1)(c1cccs1)C1CN2CCC1CC2 (centres unmarked)  2.69%
28. CC(c1ccccc1)N1CCC(=O)C2=C1CCCC2 (centres unmarked)  2.54%
29. Cc1oc2ccc(O)c(CN3CCN(C)CC3)c2c1C(=O)NCc1ccccc1  2.14%
30. Fc1ccccc1N1CCN(Cc2c(F)cccc2Cl)CC1  2.1%
31. Cc1occc1C(=O)Nc1ccc2c(c1)OCO2  1.92%
32. C=C(C)CN(CC)Cc1ccc(-c2ccc([N+](=O)[O-])cc2)o1  1.9%
33. Cc1cc(CN2CCc3ccccc3C2)cs1  1.77%
34. CCOCCCNC(=O)CCC(=O)n1ncc2c(C)cccc21  1.68%
35. CC1(C)CC2(CCO1)NCCN1C(=O)CSC12 (centres unmarked)  1.4%
36. CC(C(=O)NCCC1=CCCCC1)N1C(=O)c2ccccc2C1=O (centres unmarked)  1.37%
37. C=CCN1C(=O)NC2(CCCCC2)C1=O  1.33%
38. CC(C)(C)c1cc(C(=O)CSc2nnc(Nc3ccccc3)n2-c2ccccc2)cc(C(C)(C)C)c1O  1.27%
39. O=C(O)c1cc(S(=O)(=O)N2CCCCC2)ccc1Cl  1.13%
40. CC(CC(=O)O)N[C@H](C)c1ccccc1 (some centres unmarked)  0.968%
41. O=C(NC1CCCCC1)c1cnn2c(C(F)(F)F)cc(-c3ccco3)nc12  0.909%
42. Cc1cc(C)c2c(-n3cccc3)c(C(=O)NCc3ccc(F)cc3)sc2n1  0.623%
43. COc1ccc2cc(-c3csc(NC(=O)CCC(=O)NCc4ccc(C)o4)n3)c(=O)oc2c1  0.569%
44. COc1ccc(OC)c(NC(=O)CN(c2cc(Cl)ccc2C)S(C)(=O)=O)c1  0.389%
45. CC(NC(=O)c1cc(N)cc(C(=O)NC(C)c2ccccc2)c1)c1ccccc1 (centres unmarked)  0.324%
46. CCc1nn(CC(=O)N2CCC(N3CCCCC3)CC2)c(=O)c2cc3sccc3n12  0.137%
47. COc1ccc(OC)c(S(=O)(=O)c2ccc(C)c(C)c2)c1  -0.0369%
48. CCOc1ccc(C(=O)N(Cc2nc(-c3ccc(C)cc3)no2)C(C)C)cc1OCC  -0.0593%
49. CCOc1ccccc1NC(=O)COc1ccccc1  -0.123%
50. COC(=O)c1sccc1NC(=O)CN1CCOCC1  -0.403%
51. O=C(Nc1cccc(Cl)c1)C(=O)NC1CCCC1  -0.414%
52. CCOC(=O)C1CCCN(Cc2cc(Br)cs2)C1 (centres unmarked)  -0.507%
53. Cc1ccc(S(=O)(=O)c2nc(S(C)(=O)=O)sc2N2CCN(Cc3ccccc3)CC2)cc1  -0.522%
54. CNCC(=O)N1c2ccccc2CCc2ccc(NC(=O)OC)cc21  -0.736%
55. COc1ccc(Cl)cc1C(=O)N1CCN(c2cccc(Cl)c2)CC1  -0.795%
56. COc1cc(C2C(C#N)=C(N)Oc3cc(C)n(Cc4cccnc4)c(=O)c32)ccc1O (centres unmarked)  -1.11%
57. NC(=O)Cn1nnc2sc(-c3ccccc3)cc2c1=O  -1.16%
58. CCOc1ccccc1C1C(C(=O)OC)=CN(CCC23CC4CC(CC(C4)C2)C3)C=C1C(=O)OC  -1.24%
59. COc1cccc(OC)c1C(=O)Nc1cccc(C(F)(F)F)c1  -1.36%
60. CC(C)(C)c1ccc(C(=O)Nc2cccc(C#N)c2)cc1  -1.51%
61. Cc1cccc(C(=O)Nc2cccnc2Cl)c1  -1.61%
62. CN(C)CCCN(CCCN(C)C)Cc1ccc(-c2cccc(Cl)c2)o1  -1.64%
63. CCOC(=O)c1cnc(N2CCN(CC)CC2)nc1C  -1.85%
64. N#Cc1ccc(NC(=O)CSc2ccc(Br)cc2)cc1  -1.92%
65. Fc1ccc(N2CCN(Cc3ccc(Cl)cc3Cl)CC2)cc1  -1.92%
66. COc1ccc(Cc2nnc3c4cnn(Cc5ccccc5)c4ncn23)cc1  -2.14%
67. CNC(=S)NCCc1c(C)[nH]c2ccccc12  -2.16%
68. Cc1ccc(S(=O)(=O)N2CCC(C(=O)Nc3ccc(C(=O)O)cc3)CC2)cc1  -2.22%
69. CC(C)C(NS(=O)(=O)c1cccc2nsnc12)C(=O)N1CCn2c1nc1ccccc12 (centres unmarked)  -2.25%
70. Cc1ccc(-c2cc(C(=O)NCCCN3CCCC3)c3ccccc3n2)cc1C  -2.26%
71. COc1ccccc1C(=O)Nc1ccc(F)cc1F  -2.36%
72. O=Cc1ccc(-n2nncc2-c2ccccc2)cc1  -2.62%
73. CC(=O)Nc1ncc2c(n1)CC(c1ccc(C)cc1)CC2=O (centres unmarked)  -2.89%
74. CC(C)N(C(=O)C1CCCCC1C(=O)O)C(C)C (centres unmarked)  -2.92%
75. CCOC(=O)c1c(-c2ccccc2)csc1NC(=O)COCc1cc(-c2cccs2)on1  -2.96%
76. O=S(=O)(Nc1ccc2c(c1)CCC2)c1cccc2cccnc12  -2.97%
77. CCC(C)NC(=O)c1ccc(CS(=O)(=O)Cc2ccc(Cl)cc2)o1 (centres unmarked)  -3.12%
78. Clc1ccccc1N1CCN(C2CCN(CCc3ccccc3)CC2)CC1  -3.27%
79. CCCCN(C)Cc1ccc([N+](=O)[O-])cc1  -3.57%
80. O=C(C1=COCCO1)N(c1ccccc1)c1ccccc1  -3.66%
81. CCOc1cc(C2C3=C(CC(C)(C)CC3=O)OC3=C2C(=O)CC(C)(C)C3)ccc1O  -3.69%
82. CCC(C(=O)NC(C)C12CC3CC(CC(C3)C1)C2)n1nc(C)n2c(cc3occc32)c1=O (centres unmarked)  -3.79%
83. Cc1ccc(S(=O)(=O)N(CC(=O)N2CCOCC2)Cc2ccccc2)cc1  -3.83%
84. Cc1cc(N2CCN(c3ccccc3)CC2)nc(-n2nc(C)cc2C)n1  -3.83%
85. CCN(CC)C(=O)C1CCCN(C2CCCCCC2)C1 (centres unmarked)  -4.03%
86. COc1ccc(CCN2C(=O)C(O)=C(C(=O)c3cccs3)C2c2ccc(C)cc2)cc1 (centres unmarked)  -4.52%
87. COc1ccc(C2(NCc3cc(OC)ccc3OC)C(=O)c3ccccc3C2=O)cc1  -4.8%
88. CCN(CC)CCCNC(=O)C1CCN(c2nnc(-n3cccc3)s2)CC1  -5.15%
89. Cn1c2c(c(=O)n(C)c1=O)CN(CCN1CCNCC1)CN2  -5.23%
90. CCOC(=O)N1CCN(C(c2ccccn2)c2ccc3cccnc3c2O)CC1 (centres unmarked)  -5.32%
91. Cc1cc(C)n(S(=O)(=O)c2ccccc2)c(=O)n1  -5.33%
92. COc1cc2c(cc1OC)C(c1ccc([N+](=O)[O-])cc1)NCC2 (centres unmarked)  -5.5%
93. C=CCN1C(=O)S/C(=C/c2cc(C)n(-c3cc(C)ccn3)c2C)C1=O  -5.51%
94. O=C1CSC(c2ccccc2)N1CCc1ccccc1 (centres unmarked)  -5.65%
95. COc1ccc(OC)c(NC(=O)CC(c2ccccc2)c2ccccc2)c1  -5.69%
96. O=C(CCSc1ccc(Cl)cc1)N1CCOCC1  -6.05%
97. O=C(Nc1cccnc1)c1sc2cccc(Cl)c2c1Cl  -6.36%
98. O=C(O)CC(NC(=O)C1CCCCC1)c1ccc(Cl)cc1 (centres unmarked)  -6.42%
99. CC(C)(C)C(=O)NC(=S)N1CCOCC1  -6.44%
100. N#Cc1ccc(NC(=O)CSc2nc3ccccc3s2)cc1  -6.62%
101. CC(C)OCCCNc1nc2ccccc2c2nc(-c3ccncc3)nn12  -7.99%
102. CC(CCc1ccccc1)NC(=O)Cn1c(=O)c2cccn2c2cccnc21 (centres unmarked)  -8.52%
103. Cn1c2c(c(=O)n(C)c1=O)C(c1ccccc1F)C(C#N)=C(N)O2 (centres unmarked)  -9.79%
104. C=CCNC(=O)CN(Cc1ccccc1)S(=O)(=O)c1ccccc1  -15.4%
